According to PubChem BioAssay AID2546 (National Center for Advancing Translational Sciences (NCATS), 2010):
Out of some 310,000 compounds screened, about 11,000 (3.5%) were called active. This list was built around the results that the source calls inconclusive (neither active nor inactive); the mix of calls is not that of the screen. The call rests on the fitted dose curve; in most records, active means well fitted inhibition curve with a large enough effect; inconclusive means small, poorly fitted or top-dose-only effect, or effect the other way; inactive means flat fitted curve, though single readings scatter. Potencies of inconclusive entries are left out as doubtful fits.

Assay: VP16 counterscreen qHTS for inhibitors of ROR gamma transcriptional activity;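 further: Gal4-VP16 expression switched on by copper sulfate through the metallothionein promoter; nearly all actives have a fitted effect of over 50% in size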
Settings: Drosophila S2 Gal4-VP16 UAS-luciferase, luminescence, 20 h; series mostly up to 53.6 µM
Potency means the concentration at half of the fitted maximal effect; tags describe the fitted curve by direction and shape.

Structure (SMILES) | Potency
CCCc1cc(=O)oc2cc(OCC(=O)NC3CCN(Cc4ccccc4)CC3)ccc12 | inactive
Cc1ccc(C)c(OCc2ccc(C(=O)N3N=C(C(F)F)CC3(O)C(F)F)o2)c1 (stereo not drawn) | inconclusive [inhibitor, partial curve, poor fit]
CCc1cc2c(SCc3nc4sc(C(C)=O)c(C)c4c(=O)[nH]3)ncnc2s1 | inconclusive [inhibitor, single point]
CCN1CCN(c2cc(C)c3cc(NC(=O)c4ccc(OC)c(OC)c4)ccc3n2)CC1 | inactive
COc1ccc(C)cc1Nc1nc(N)c2cc(OC)c(OC)cc2n1 | inconclusive [inhibitor, single point]
O=C(NCC1CCN(c2ccc(S(=O)(=O)N3CCOCC3)cc2)CC1)Nc1ccccc1 | inactive
O=C(Nc1ccc(F)cc1)c1nc[nH]c1C(=O)Nc1ccccc1[N+](=O)[O-] | inactive
CCN1C(=O)c2cccc3c(S(=O)(=O)Nc4ccc(OC)cc4OC)ccc1c23 | active: 17.8 µM
O=C(CSc1nc2ccccc2c(=O)n1CC1CCCO1)NCc1ccccc1 (stereo not drawn) | inactive
CCOc1ccccc1N(CC(=O)Nc1ccc(OC)c(OC)c1)S(=O)(=O)c1ccccc1 | inactive
C=CCn1c(=S)[nH]c2nc3c(cc2c1=O)CCCC3 | active: 7.08 µM
Cc1ccn2cc(-c3cccc(NC(=O)c4cccs4)c3)nc2c1 | inconclusive [inhibitor, partial curve]
O=[N+]([O-])c1cc([N+](=O)[O-])c(Oc2ccc(Cl)c3cccnc23)cc1NN1CCCCC1 | inconclusive [inhibitor, partial curve]
Cc1cc(Br)cc(/C=N/NC(=O)c2ccc3c(c2)OCO3)c1O | active: 3.55 µM
O=C(c1ccccc1C(=O)N1CCN(c2ccc(F)cc2)CC1)N1CCN(c2ccc(F)cc2)CC1 | inactive
Cc1cc(C(=O)NC2CCCc3c2cnn3-c2ccc(C(C)(C)C)cc2)nn1C (stereo not drawn) | active: 11.2 µM
Clc1ccc(N2CCN(Cc3ccco3)CC2)cc1 | inactive
Cc1ccc(-n2c(C)cc(C(=S)N3CCOCC3)c2C)cc1C | inactive
C=CCSc1nnc(NC(=O)c2nc(SCC)ncc2Cl)s1 | inconclusive [inhibitor, single point]
CC(C)COc1ccc(-c2cc(C(=O)NN)[nH]n2)cc1 | inconclusive [inhibitor, single point]
Cc1ccc(F)c(NC(=O)CCc2ccccc2)c1 | inconclusive [inhibitor, partial curve]
CCOc1ccc(C(=O)C(CN2CCOCC2)c2ccccc2)cc1 (stereo not drawn) | inconclusive [inhibitor, single point]
CC1(C)CC(=O)C=C(NCc2cccc(C(F)(F)F)c2)C1 | inactive
COc1ccc(/C=N/Nc2nc(N3CCCC3)nc(N3CCCC3)n2)cc1 | inconclusive [inhibitor, single point]
CN(c1ncc(C(F)(F)F)cc1Cl)n1cc(C(N)=O)c2ccccc2c1=O | inactive
COc1cccc(-n2cc(C(=O)NC(C)C)c3ccccc3c2=O)c1 | inactive

Structure (SMILES) | Potency
Cn1c(SCC(=O)OC2CCCCC2)nnc1-c1ccc2c(c1)OCO2 | inactive
CCOC(=O)c1ccc(NC(=O)CN2C(=O)CNC2=O)cc1 | inconclusive [activator, single point]
COc1cc(/C=C2/SC(=S)N(Cc3ccccc3)C2=O)cc(Cl)c1O | inconclusive [inhibitor, single point]
Cc1cc(N2CCOCC2)n2ncc(-c3ccccc3)c2n1 | active: 12.6 µM
CC1SC(=S)N(c2ccc(N(C)C)cc2)C1=O (stereo not drawn) | active: 12.6 µM
CCOC(=O)/C(=C/c1c[nH]c2ccccc12)NC(C)=O | inactive
COCc1cc(=O)n2[nH]cc(-c3ccsc3)c2n1 | inconclusive [inhibitor, single point]
COc1ccc(CCC(=O)OCC(=O)Nc2ccccc2)cc1 | inactive
COc1ccc(-n2nc3c(c2NC(=O)CCl)CSC3)cc1 | inconclusive [inhibitor, single point]
O=C(c1cc2cc([N+](=O)[O-])ccc2oc1=O)N1CCOCC1 | inconclusive [inhibitor, partial curve]
O=S1(=O)N=C(N/N=C/c2ccc(Br)o2)c2ccccc21 | active: 14.1 µM
Cc1ccc(C(=O)NN2C(=O)c3ccc(S(=O)(=O)c4ccc(C(=O)O)cc4)cc3C2=O)cc1 | inactive
c1ccc(OCc2nn3c(Cn4nnc5ccccc54)nnc3s2)cc1 | inactive
CCCCN1C(=O)c2ccc(C(=O)NC3=NCCS3)cc2C1=O | inconclusive [inhibitor, single point]
N/C(=N\OC(=O)c1ccoc1)c1ccc(Br)cc1 | inconclusive [inhibitor, single point]
Cc1ccc(/C(N)=N/OC(=O)c2ccc(Cl)cc2Cl)cc1 | inconclusive [inhibitor, single point]
Nc1ccc(O)cc1C(=O)OCC(=O)c1ccc(C2CCCCC2)cc1 | inconclusive [inhibitor, partial curve, poor fit]
Cc1cc(NC(=S)N(CCN2CCCCC2)Cc2ccco2)ccc1Cl | inconclusive [inhibitor, single point]
O=C(CC(Sc1ccc(Br)cc1)C(=O)O)c1ccc(F)cc1 (stereo not drawn) | inconclusive [inhibitor, single point]
c1ccc2c(c1)CCN(c1ncnc3c1[nH]c1ccccc13)C2 | active: 6.31 µM
CCC(C(=O)Nc1ccc2c(c1)OCCO2)n1c(=O)[nH]c2ccccc2c1=O (stereo not drawn) | inactive
CCC(C)c1ccc(NC(=O)CC(C)=O)cc1 (stereo not drawn) | inconclusive [inhibitor, single point]
C=C(C)CNC(=S)N/N=C(\C)c1ccc(Cl)s1 | active: 2.82 µM
NNC(=S)NCc1ccco1 | inconclusive [inhibitor, single point]
O=C(CCC1CCCCC1)NCc1ccc(F)cc1 | inconclusive [activator, single point]
CCOc1ccc(CN(C)CC(=O)Nc2ccc([N+](=O)[O-])cc2Cl)cc1 | inconclusive [inhibitor, single point]

Structure (SMILES) | Potency
Cc1[nH]n(C2=NCCS2)c(=O)c1N=Nc1cccc(C(F)(F)F)c1 | active: 0.631 µM
CCN(CC)c1ccc(NC(=O)C2CCCN(S(=O)(=O)c3cnc[nH]3)C2)c(C)c1 (stereo not drawn) | inconclusive [inhibitor, single point]
Cc1c(C(C)NC(=O)c2cc(COc3cccc4cnccc34)on2)cnn1C (stereo not drawn) | active: 12.6 µM
CC(C)(C)n1cnc2cc(NCc3ccc(Br)cc3)ccc21 | inconclusive [activator, single point]
COc1ccc(C)cc1NC(=O)Nc1ccccc1 | inconclusive [inhibitor, single point]
COc1ccc(-c2cc3nc(C)n(N)c(=O)c3s2)cc1 | active: 1.26 µM
CCCCOC(=O)c1ccc(NC(=S)NC(=O)c2c(Cl)cnn2CC)cc1 | active: 17.8 µM
O=C(CSCC(=O)N1CCOCC1)Nc1nc(-c2ccccc2)cs1 | inconclusive [activator, partial curve]
CC(=O)Nc1ccc(S(=O)(=O)Nc2ccc3ccccc3n2)cc1 | inconclusive [inhibitor, single point]
NNc1nc(-c2ccccc2)cc(-c2ccccc2O)n1 | active: 12.6 µM
COc1ccc(-c2noc(CCC(=O)NCCN3CCN(c4ccccc4F)CC3)n2)cc1 | inconclusive [inhibitor, single point]
Cc1cccc(NC(=O)c2ccc([N+](=O)[O-])s2)n1 | inconclusive [inhibitor, partial curve]
CC12CCC=CC1C(c1cccc(Br)c1)N(Cc1ccccc1)C2=O (stereo not drawn) | active: 12.6 µM
CCNc1nc(NCC)nc(Oc2ccc(OCC)nn2)n1 | inactive
CCN(CC)c1ccc(C(=O)OCC(=O)NC2CCCCC2C)cc1 (stereo not drawn) | inactive
COc1ccc(-n2ccnc2SCC(=O)NO)cc1 | inactive
C/C(=N\NC(=O)c1c[nH]c2ccccc12)c1ccc2c(c1)OCO2 | inconclusive [activator, single point]
C=CCn1c(SCC(=O)NCc2ccccc2)nnc1-c1cc(Br)ccc1O | inconclusive [inhibitor, single point]
CCOC(=O)c1cc(N)cc([N+](=O)[O-])c1 | inconclusive [inhibitor, partial curve]
COc1ccccc1-c1n[nH]c(=S)n1Cc1ccco1 | inactive
COc1ccccc1C/C(N)=N/OC(=O)c1cccc([N+](=O)[O-])c1C | active: 12.6 µM
CS(=O)(=O)c1ccc(C(=O)OC2CCOC2=O)cc1[N+](=O)[O-] (stereo not drawn) | inconclusive [inhibitor, partial curve]
COc1cccc(OCc2cc(C(=O)N(C)CCOc3ccc(C)cc3)no2)c1 | inconclusive [activator, partial curve]
Cc1oc2c(c1C(=O)c1ccccc1)C(=O)C(=O)c1ccccc1-2 | active: 3.16 µM
CCCn1nnnc1NC(=O)COc1ccc(Br)cc1 | active: 7.08 µM
Cc1ccc2cc(NC(=O)c3ccccc3)ccc2n1 | inconclusive [inhibitor, partial curve]
